Here are results for two molecules from patent EP1410040B1 (Boehringer Ingelheim International GmbH, dated 2006).

The assay concerns the target T1, p/CIP (UniProt O09000 1-1398, limits assumed, 35S-methionine labeled in the pull-down assay).
T1 construct: also called ACTR; AIB1
The assay can be described thus: GST pull-down, 35S-labeled in vitro translated coactivator.

B1: GST (Glutathion S Transferase) alone (other)
chain: not shown
notes: Control for the GST fusion proteins
Consider B1, for which the binding result is on record as “no binding”.

B2: GST-STAT6 […] protein (other)
chain: [about 200 residues not shown]SDLIEGRGIPEFDSSMSMQLGPDMVPQVYPPHSHSIPPYQGLSPEESVNVLSAFQEPHLQMPPSLGQMSLPFDQPHPQGLLPCQPQEHAVSSPDPLLCSDVTMVEDSCLSQPVTAFPQGTWIGEDIFPPLLPPTEQDLTKLLLEGQGESGGGSLGAQPLLQPSHYGQSGISMSHMDLRANPSW
notes: also called GST-STAT6 ([…]); GST-STAT6 TAD
Regarding B2, the binding result is recorded as “no binding”.
